# Assay results published in PubChem BioAssay AID360 (National Center for Advancing Translational Sciences (NCATS), 2006).
# The whole screen tested about 48,000 compounds, of which about 550 (1.1%) were called active. About 4% were inconclusive and are not listed. Cut-off read from the data, not from the text of the source: active = potency below about 15 µM; inconclusive = mostly about 16 µM to 33 µM; inactive = weaker than that. Some of the results follow.
# Target: Lysosomal acid glucosylceramidase (Homo sapiens) (UniProt P04062)
# Experiment: Glucocerebrosidase;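 note: the screen sought inhibitors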
# Conditions: purified enzyme, resorufin glucoside fluorescence (screen aimed at inhibitors), 20 min
# Outline: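 Normal human glucocerebrosidase (0.2 nM final) was assayed with resorufin β-D-glucopyranoside (30 uM final) in 50mM citric acid/KH2PO4, 10mM sodium taurocholate, 0.01% tween-20, pH 5.9. Compounds were titrated; fluorescence (Ex 548, Em 600) read after 20 min at RT.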
# Potency is the fitted concentration of half-maximal effect.
# Chain of UniProt P04062 (P04062 whole entry, looked up): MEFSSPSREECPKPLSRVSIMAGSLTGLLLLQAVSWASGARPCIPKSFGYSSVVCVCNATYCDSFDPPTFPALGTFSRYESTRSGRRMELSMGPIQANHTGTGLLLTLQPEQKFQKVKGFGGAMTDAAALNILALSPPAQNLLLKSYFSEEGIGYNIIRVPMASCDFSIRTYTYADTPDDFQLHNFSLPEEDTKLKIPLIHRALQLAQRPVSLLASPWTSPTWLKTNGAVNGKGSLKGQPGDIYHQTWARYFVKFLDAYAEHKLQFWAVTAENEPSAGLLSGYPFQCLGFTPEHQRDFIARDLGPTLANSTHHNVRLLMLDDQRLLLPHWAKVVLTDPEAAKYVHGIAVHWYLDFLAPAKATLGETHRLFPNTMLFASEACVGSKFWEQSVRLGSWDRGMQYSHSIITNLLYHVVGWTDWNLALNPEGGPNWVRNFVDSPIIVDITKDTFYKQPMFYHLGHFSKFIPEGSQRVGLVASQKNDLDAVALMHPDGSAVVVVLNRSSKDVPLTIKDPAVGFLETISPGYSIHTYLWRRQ
row,Structure (SMILES),Potency
1,Cc1ccc(Cl)cc1N1CCN(C(=O)c2cn(C)c(=O)c3c2c2ccccc2n3C)CC1,inactive: > 76.9 µM
2,O=C(Cn1c(NCCCO)nc2ccccc21)c1ccc(Br)cc1,inactive: > 76.9 µM
3,CCOc1nc(C)ccc1-c1noc(-c2ccncc2)n1,inactive: > 76.9 µM
4,Cn1c(CN2CCCC2)nc2cc(NC(=O)c3ccco3)ccc21,inactive: > 76.9 µM
5,COc1ccc(N2CCn3c2nc2c3c(=O)n(CCN3CCOCC3)c(=O)n2C)cc1,inactive: > 76.9 µM
6,CCOC(=O)N1CCN(C(=O)CCSc2ccc(C)cc2)CC1,inactive: > 76.9 µM
7,CC(=O)Nc1ccc(S(=O)(=O)Nc2nc3ccccc3nc2Sc2nncn2C)cc1,inactive: > 76.9 µM
8,O=C(CN1CCN(Cc2ccccc2)CC1)N1CCCc2c1c(=O)oc1ccc(O)cc21,active: 14.2 µM
9,Fc1cccc(Cl)c1CSc1nnc(COc2cccc3cccnc23)o1,inactive: > 76.9 µM
10,Brc1c(CSc2nc3ccccc3o2)nc2ncccn12,inactive: > 76.9 µM
11,CCOc1ccc(NS(=O)(=O)c2ccc(SC)cc2)cc1,inactive
12,Cc1ccccc1C(=O)Nc1c(C(=O)N2CCCC2)cnn1-c1ccccc1,inactive: > 76.9 µM
13,O=C(NCc1nnc(SCC(=O)N2CCCC2)o1)c1c(F)cccc1Cl,inactive: > 76.9 µM
14,COc1ccc(-c2nn(C)c(=O)c3ccccc23)cc1NC(=O)Cn1nc(C)c2ccccc2c1=O,inactive: > 76.9 µM
15,Cc1ccc(C(=O)NC2CCCCCC2)cc1N1CCCC1=O,inactive: > 76.9 µM
16,CC(C)(C)OC(=O)N1CCC(c2c(C(=O)O)cnn2-c2ccccc2)CC1,inactive: > 76.9 µM
17,CCOCc1nc(C)c(Cl)c(NS(=O)(=O)c2ccc(N)cc2)n1,inactive: > 76.9 µM
18,CCOCCn1c(CCCO)nc2ccccc21,inactive: > 76.9 µM
19,Cc1oc(-c2ccccc2F)nc1CS(=O)(=O)CC(=O)NCCCN(C)C1CCCCC1,inactive: > 76.9 µM
20,Cn1ccnc1C(O)(c1nnc(-c2ccccc2)o1)C(F)(F)F (stereo not drawn),inactive: > 76.9 µM
21,CCCC(c1nnnn1Cc1ccc(OC)cc1)N1CCC(C(N)=O)CC1 (stereo not drawn),inactive: > 76.9 µM
22,COCC(=O)NC(C)c1nc2ccccc2[nH]1 (stereo not drawn),inactive: > 76.9 µM
23,COc1ccc(N2CCN(/C(=N\S(=O)(=O)c3ccccc3)Nc3nc(C)cc(C)n3)CC2)cc1,inactive: > 76.9 µM
24,O=C(c1ncc[nH]1)c1ccco1,inactive: > 76.9 µM

row,Structure (SMILES),Potency
1,COc1ccc(C2CC(c3ccccc3)n3nc(NC(=O)c4cccs4)nc3N2)cc1 (stereo not drawn),inactive: > 76.9 µM
2,CCOC(=O)c1cc(C)sc1N1C(=O)C2C3C=CC(C3)C2C1=O (stereo not drawn),inactive: > 76.9 µM
3,CCC(=O)c1ccc(OCC(O)CN2CC(C)OC(C)C2)cc1 (stereo not drawn),inactive: > 76.9 µM
4,O=C(Nc1ccccc1)c1ccc(NCC2CCCO2)c(S(=O)(=O)N2CCOCC2)c1 (stereo not drawn),inactive: > 76.9 µM
5,CS(=O)(=O)N1Cc2ccccc2CC1C(=O)Nc1ccccc1C(N)=O (stereo not drawn),inactive: > 76.9 µM
6,CCOc1cccc2cc(C(=O)Nc3cc(C)on3)c(=O)oc12,inactive: > 76.9 µM
7,N#Cc1c(-c2ccccc2)nc(SCc2nc(N)nc(N3CCCCC3)n2)[nH]c1=O,inactive: > 76.9 µM
8,CN1Cc2sc(N)c(C#N)c2CC1(C)C,inactive: > 76.9 µM
9,CCCS(=O)(=O)NCCc1cc2ccc(C)cc2[nH]c1=O,inactive: > 76.9 µM
10,COc1ccc(CCCC(=O)O)c(C)c1,inactive: > 76.9 µM
11,COc1ccc(CN2CCCCCC2)c(C)c1C,inactive: > 76.9 µM
12,COc1ccc(Cc2noc(-c3ccc(OC)c(OC)c3)n2)cc1OC,inactive: > 76.9 µM
13,CCc1ccc2oc(-c3cc(N)ccc3Cl)nc2c1,inactive: > 76.9 µM
14,COc1ccc(OC)c(S(=O)(=O)NCCc2ccccc2)c1,inactive: > 76.9 µM
15,COc1ccccc1-c1cn[nH]c(=S)n1,inactive: > 76.9 µM
16,C=CCN(C(=O)CNC(=O)c1ccco1)C(C(=O)NC1CCCCC1)c1ccc(OC)cc1OC (stereo not drawn),inactive: > 76.9 µM
17,O=S(=O)(NCc1cccnc1)c1ccc(Br)s1,inactive: > 76.9 µM
18,CC(=O)Nc1ccc(S(=O)(=O)N2CCSC2c2ccc(Cl)cc2)cc1 (stereo not drawn),inactive
19,C=CCn1c(SCC(=O)NCCOC)nc2scc(-c3ccco3)c2c1=O,inactive: > 76.9 µM
20,Cc1cc(C)c2c3c(sc2n1)C(=O)N(C)CC(=O)N3,inactive: > 76.9 µM
21,O=C(CN(Cc1ccccc1)C(=O)c1ccc2c(c1)OCCO2)NCc1ccc2c(c1)OCO2,inactive: > 76.9 µM
22,Cc1ccc(-c2nc(Nc3ccccc3)n[nH]2)cc1,inactive: > 76.9 µM
23,COc1cc(CO)cc(Br)c1OCc1cccnc1,inactive: > 76.9 µM
24,Cc1cc(C)cc(OCC(=O)Nc2ccccc2C(=O)NCc2ccco2)c1,inactive: > 76.9 µM

row,Structure (SMILES),Potency
1,COc1ccccc1OCCCn1c(=O)oc2ccccc21,inactive: > 76.9 µM
2,Cc1ccc(-c2noc(CCC(=O)Nc3ccccc3C)n2)cc1,inactive: > 76.9 µM
3,Cc1cc(N2CCN(C(=O)c3ccco3)CC2)n2ncc(-c3ccccc3)c2n1,inactive
4,CN(C(=O)C1CCCO1)c1nnc(-c2cnccn2)s1 (stereo not drawn),inactive: > 76.9 µM
5,CC(C)c1ccc(NC(=O)C(c2ccc3c(c2)OCO3)N2CCC3(CC2)OCCO3)cc1 (stereo not drawn),inactive
6,CN(Cc1ccccc1)c1oc(-c2ccco2)nc1C#N,inactive: > 76.9 µM
7,c1ccc(C2C3=C(CCCC3)Nc3ncnn32)cc1 (stereo not drawn),inactive: > 76.9 µM
8,CC1CC(C)CN(c2nc3c(c(=O)n(C)c(=O)n3C)n2C)C1 (stereo not drawn),inactive: > 76.9 µM
9,Cc1ccc(NC(=O)CNc2cccc(C)c2C)c(C)c1,inactive: > 76.9 µM
10,CCN(CC)c1nc2ccccc2nc1C(C#N)C(=O)NCCCOC (stereo not drawn),inactive: > 76.9 µM
11,CCCCc1nccn1CCn1ccnc1CCCC,inactive: > 76.9 µM
12,Cc1nc2c(C(=O)NCc3ccco3)cnn2c(C)c1Cc1ccc(F)cc1Cl,inactive: > 76.9 µM
13,c1ccc(-n2ncc3c(N4CCN(c5ccccn5)CC4)nc(N4CCCCCC4)nc32)cc1,inactive: > 76.9 µM
14,Cc1cccc(Cc2c(C)nc3c(C(=O)NCc4ccco4)cnn3c2C)c1,inactive
15,COc1cc(NS(=O)(=O)c2ccc(F)cc2)c(OC)cc1NC(=O)C1CC1,inactive: > 76.9 µM
16,CCOC(=O)C1=C(N)N(c2ccccc2Oc2ccccc2)C(=O)C1,inactive: > 76.9 µM
17,O=C(O)c1cccn1Cc1ccccc1F,inactive: > 76.9 µM
18,COC(=O)[C@H](Cc1ccccc1)NC(=O)N1CC(C)OC(C)C1 (stereo partly drawn),inactive: > 76.9 µM
19,CC1CN(C(=O)CCn2c(=O)oc3ccccc32)CC(C)O1 (stereo not drawn),inactive: > 76.9 µM
20,N#Cc1cc2c(=O)n3ccccc3nc2n(Cc2cccnc2)c1=N,inactive: > 76.9 µM
21,Cn1nnnc1SCCNC/C=C/c1ccccc1,inactive: > 76.9 µM
22,O=C(COC(=O)C12CC3CC(CC(O)(C3)C1)C2)Nc1ccccc1OC(F)F,inactive: > 76.9 µM
23,COc1ccc(CCNc2nnc(Sc3nnnn3-c3ccccc3)s2)cc1OC,inactive: > 76.9 µM
24,Cc1ccc(NC(=O)C(C)N2C(=O)c3ccccc3C2=O)cc1 (stereo not drawn),inactive: > 76.9 µM

row,Structure (SMILES),Potency
1,Cc1ccc(C)c(CSc2nnc(-c3cccnc3)o2)c1,inactive: > 76.9 µM
2,O=C(Cc1c[nH]c2ccccc12)N1CCc2ccccc21,inactive: > 76.9 µM
3,O=C(NCCCCCNC(=O)c1ccco1)c1ccco1,inactive: > 76.9 µM
4,Nn1cnn(Cc2ccccc2)c1=S,inactive: > 76.9 µM
5,O=S(=O)(Nc1nc(CN2CCOCC2)nc2sc3c(c12)CCCC3)c1cc(F)ccc1F,inactive: > 15.4 µM
6,Cc1ccc(-c2cn3cccnc3n2)cc1NC(=O)c1ccc(Br)o1,inactive
7,CCCn1nnc(NC(=O)c2sc3ccccc3c2Cl)n1,inactive: > 76.9 µM
8,O=C(NCCCCNC(=O)C1CCCC1)C1CCCC1,inactive: > 76.9 µM
9,C=CCNC(=O)NC(=O)COC(=O)CCCSc1nc2ccccc2[nH]1,inactive: > 76.9 µM
10,Cc1cccc(-n2nnc(C(=O)NCc3ccccn3)c2N)c1,inactive: > 76.9 µM
11,CCOC(=O)c1c(C)[nH]c(C)c1C(=O)CSc1nnc(-c2cc(OC)c(OC)c(OC)c2)o1,inactive: > 76.9 µM
12,CC(=O)NC1=NC(=O)/C(=C/N2CCCCC2)S1,inactive: > 76.9 µM
13,N#CC(C(=O)Nc1ccc(Cl)cc1)=C1Nc2ccccc2N1,inactive: > 76.9 µM
14,CC(OC(=O)CN(C)S(=O)(=O)c1ccc(Cl)cc1)C(=O)Nc1ccc(N2CCOCC2)cc1 (stereo not drawn),inactive: > 76.9 µM
15,Cc1oc(-c2ccccc2)nc1C(=O)OCC(=O)NC(=O)NCC(C)C,inactive: > 76.9 µM
16,COC(=O)c1c(NC(=O)COC(=O)Cn2cnc3ccccc32)sc(C)c1C,inactive: > 76.9 µM
17,O=C(Cn1c(C2CC2)nc2ccccc2c1=O)Nc1ccc(Br)cc1,inactive: > 76.9 µM
18,Cn1c(=O)n(C)c2cc(NS(=O)(=O)c3ccc4c(c3)CCCC4)ccc21,inactive: > 76.9 µM
19,COCCCn1c(SCC(=O)Nc2ccc3c(c2)OCCO3)nnc1-c1ccoc1C,inactive: > 76.9 µM
20,COCCNC(=O)C(c1ccccc1)N(CCOC)C(=O)Cn1nnc2ccccc21 (stereo not drawn),inactive: > 76.9 µM
21,CCOC(=O)C1CCCN(C(=O)CN2C(=O)C(CC)Oc3ccc(C)cc32)C1 (stereo not drawn),inactive: > 76.9 µM
